Assay results published in patent publication US6861390B2, “Derivatives of UK-2A” (priority 2001, dated 2005).

tested on: Plasmopara viticola (PLASVI); assay: whole plant or invertebrate; settings: 24 h, read-out: T4 PLASVI in vivo 1 Day Protectant, control of fungal infection
From the text: A blank space indicates not tested.

Which pest or weed control at 100 ppm does the source give for `COCCOC(=O)OCOc1c(OC)ccnc1C(=O)N[C@H]1COC(=O)[C@H](Cc2ccccc2)[C@@H](OCC(C)C)[C@H](C)OC1=O` [Compound 57] here?
Its pest or weed control at 100 ppm is 25 to 74%.

Which pest or weed control at 100 ppm does the source give for `COCC(=O)OCOc1c(OC)ccnc1C(=O)N[C@H]1COC(=O)[C@H](Cc2ccccc2)[C@@H](OCC(C)C)[C@H](C)OC1=O` [Compound 58] here?
Its pest or weed control at 100 ppm is 25 to 74%.

`CCOCC(=O)OCOc1c(OC)ccnc1C(=O)N[C@H]1COC(=O)[C@H](Cc2ccccc2)[C@@H](OCC(C)C)[C@H](C)OC1=O` [Compound 59] was tested. Which pest or weed control at 100 ppm did it give?
Its pest or weed control at 100 ppm is 25 to 74%.

With `CCCO[C@H]1[C@H](C)OC(=O)[C@@H](NC(=O)c2nccc(OC)c2OCOC(=O)COCC)COC(=O)[C@@H]1Cc1ccccc1` [Compound 60] as the compound, how does the pest or weed control at 100 ppm read?
Its pest or weed control at 100 ppm is 25 to 74%.

`COc1ccnc(C(=O)N[C@H]2COC(=O)[C@H](Cc3ccccc3)[C@@H](OCC(C)C)[C@H](C)OC2=O)c1OCOC(=O)C1CCCC1` [Compound 61] was tested. Which pest or weed control at 100 ppm did it give?
Its pest or weed control at 100 ppm is 25 to 74%.

With `CCCO[C@H]1[C@H](C)OC(=O)[C@@H](NC(=O)c2nccc(OC)c2OCOC(=O)C2CCCC2)COC(=O)[C@@H]1Cc1ccccc1` [Compound 62] as the compound, how does the pest or weed control at 100 ppm read?
Its pest or weed control at 100 ppm is under 25%.

With `CCCC(=O)OCOc1c(OC)ccnc1C(=O)N[C@H]1COC(=O)[C@H](Cc2ccccc2)[C@@H](OCC(C)C)[C@H](C)OC1=O` [Compound 63] as the compound, how does the pest or weed control at 100 ppm read?
The pest or weed control at 100 ppm was 75 to 100%.

How did the pest or weed control at 100 ppm turn out when `CCCO[C@H]1[C@H](C)OC(=O)[C@@H](NC(=O)c2nccc(OC)c2OCOC(=O)CCC)COC(=O)[C@@H]1Cc1ccccc1` [Compound 64] was run?
The pest or weed control at 100 ppm was 75 to 100%.

For `COc1ccnc(C(=O)N[C@H]2COC(=O)[C@H](Cc3ccccc3)[C@@H](OCC(C)C)[C@H](C)OC2=O)c1OCOCC(C)C` [Compound 65], which pest or weed control at 100 ppm is on record?
The pest or weed control at 100 ppm was under 25%.

Which pest or weed control at 100 ppm does the source give for `COCCOC(C)C(=O)OCOc1c(OC)ccnc1C(=O)N[C@H]1COC(=O)[C@H](Cc2ccccc2)[C@@H](OC(=O)C(C)C)[C@H](C)OC1=O` (stereo partly drawn) [Compound 66] here?
The pest or weed control at 100 ppm was under 25%.

`COc1ccnc(C(=O)N[C@H]2COC(=O)[C@H](Cc3ccccc3)[C@@H](OC(=O)C(C)C)[C@H](C)OC2=O)c1OCOC(=O)C(C)OC` (stereo partly drawn) [Compound 67] was tested. Which pest or weed control at 100 ppm did it give?
The pest or weed control at 100 ppm was under 25%.

How did the pest or weed control at 100 ppm turn out when `CCOC(C)C(=O)OCOc1c(OC)ccnc1C(=O)N[C@H]1COC(=O)[C@H](Cc2ccccc2)[C@@H](OC(=O)C(C)C)[C@H](C)OC1=O` (stereo partly drawn) [Compound 68] was run?
Its pest or weed control at 100 ppm is under 25%.

`CCCOC(C)C(=O)OCOc1c(OC)ccnc1C(=O)N[C@H]1COC(=O)[C@H](Cc2ccccc2)[C@@H](OC(=O)C(C)C)[C@H](C)OC1=O` (stereo partly drawn) [Compound 69] was tested. Which pest or weed control at 100 ppm did it give?
The pest or weed control at 100 ppm was under 25%.

`COc1ccnc(C(=O)N[C@H]2COC(=O)[C@H](Cc3ccccc3)[C@@H](OC(=O)C(C)C)[C@H](C)OC2=O)c1OCOC(=O)COCC(F)(F)F` [Compound 70] was tested. Which pest or weed control at 100 ppm did it give?
The pest or weed control at 100 ppm was under 25%.

Which pest or weed control at 100 ppm does the source give for `CCOCC(=O)OCOc1c(OC)ccnc1C(=O)N[C@H]1COC(=O)[C@H](Cc2ccccc2)[C@@H](OCSC)[C@H](C)OC1=O` [Compound 72] here?
Its pest or weed control at 100 ppm is under 25%.

With `COc1ccnc(C(=O)N[C@H]2COC(=O)[C@H](Cc3ccccc3)[C@@H](OCSC)[C@H](C)OC2=O)c1OCOC(=O)C1CCCC1` [Compound 73] as the compound, how does the pest or weed control at 100 ppm read?
Its pest or weed control at 100 ppm is under 25%.

For `COCCOCC(=O)OCOc1c(OC)ccnc1C(=O)N[C@H]1COC(=O)[C@H](Cc2ccccc2)[C@@H](OCSC)[C@H](C)OC1=O` [Compound 74], which pest or weed control at 100 ppm is on record?
Its pest or weed control at 100 ppm is under 25%.

With `COCCOCCOCC(=O)OCOc1c(OC)ccnc1C(=O)N[C@H]1COC(=O)[C@H](Cc2ccccc2)[C@@H](OC(=O)C(C)C)[C@H](C)OC1=O` [Compound 75] as the compound, how does the pest or weed control at 100 ppm read?
The pest or weed control at 100 ppm was 25 to 74%.
